PubChem BioAssay (NCATS)
Values joined by “and” are separate entries in the source; they are usually repeats but may differ in a detail not shown here. Equal values may be shown once. The list shows a part of the results. Further columns of the screen follow, without active or inactive calls. Compounds called inactive in the main read-out are mostly missing here. For part of these data: Words in brackets tell the shape of the fitted curve; partial curves, single points and poor fits give uncertain potencies.

What was measured:
[1] = qHTS Assay for Lipid Storage Modulators (AID 1519); conditions: Drosophila S3 cells, BODIPY lipid droplet/cell ratio, laser cytometry, cells loaded with oleic acid
Procedure, shortened: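 Cells seeded at 5,000 per well were treated with compounds over a concentration series and loaded with oleic acid (400 uM, as added). Lipid droplet fluorescence (488 nm excitation, 500-530 nm channel) was read by laser-scanning cytometry and normalized to 20 uM Triacsin C.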

[2] = qHTS Assay for Modulators of Human Peripheral Myelin Protein 22 (PMP22) Expression/Activity (AID 1967); conditions: Cell-based PMP22 reporter, dual-color luciferase ratio
Procedure, shortened: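 Engineered MSC80 cells, Pmp22-promoter green and EF-alpha red luciferase reporters; 24h compound treatment at 37 °C. Concentration-response fits on green, red and ratio signals, each overlap-corrected, with %Activity normalized to untreated wells.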

[3] = Nrf2 qHTS screen for inhibitors: Validation (AID 493153); conditions: A549 ARE-Fluc reporter, 18-24 h; AC50: CellTiter-Fluor fluorescence read, measured here: cytotoxicity CellTiter-Fluor AC50; viability change: measured here: cytotoxicity max response
Procedure, shortened: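 Luminescence from an ARE-firefly luciferase reporter in A549 cells gives Nrf2 inhibition; an earlier CellTiter-Fluor fluorescent read flags cytotoxicity. Cells in 5% FBS OPTI-MEM received compound dilution series for 18-24 h at 37°C.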

[4] = S16 Schwann cell PMP22 intronic element beta-lactamase assay (AID 624044); conditions: S16 rat Schwann cells, PMP22 element beta-lactamase FRET, 24 h; measured here: 460 nm blue channel; note: nearly all actives have a fitted effect of over 15% in size
Procedure, shortened: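 Rat S16 Schwann cells with beta-Lac driven by a PMP22 intronic element, compound-treated 24 h at 37 °C. LiveBLAzer FRET B/G read: 460 nm normalized to potassium clavulanate vs DMSO; 535 nm FRET as viability; concentration-effect curves classified.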

[5] = qHTS assay for small molecule antagonists of peroxisome proliferator-activated receptor delta signaling (AID 588535); conditions: HEK293T PPARd-UAS-bla, beta-lactamase FRET ratio, 18 h; 460 nm channel;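 note: cells co-treated with a PPAR-delta agonist as stimulator during compound exposure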
Procedure, shortened: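 Antagonist-mode beta-lactamase reporter (GeneBLAzer PPAR-delta-UAS-bla) in HEK293T cells, 2% charcoal/dextran FBS, 4000 cells/well. Compound titrations, 18 h at 37 C; CCF4 ratio read, IC50 and efficacy from Hill fits.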

[6] = qHTS assay for small molecule agonists of retinoid X receptor alpha signaling (AID 588544); conditions: HEK293T RXRa-UAS-bla, beta-lactamase reporter, 18 h; 530 nm emission
[7] = qHTS assay for small molecule antagonists of retinoid X receptor alpha signaling (AID 588546); conditions: HEK293T RXRa-UAS-bla, beta-lactamase ratio, antagonist mode; measured here: W530 green channel, cytotoxicity proxy;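 note: cells stimulated with 9-cis-retinoic acid as agonist; % is set by controls: 0 for no effect and ±100 for the full control effect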
Procedure, shortened: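 Beta-lactamase reporter inhibition, read as CCF4 fluorescence ratio (ex 405, em 460/530 nm) after 2 h at RT. HEK293T UAS-bla cells, 2500/well, were stimulated with 9-cis-RA at 500 or 100 nM final alongside test compound for 18 h at 37 C.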

[8] = qHTS Validation Assay to Find Inhibitors of Chronic Active B-Cell Receptor Signaling (AID 485345); conditions: ABC-DLBCL cells, chronic BCR signaling reporter; measured here: CBR control luciferase (viability counter)
Procedure, shortened: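 TMD8 ABC-DLBCL cells stably carrying doxycycline-inducible IkappaBalpha–green luciferase fusion plus unfused red luciferase; compounds 46 uM to 3 nM, 4 h at 37C with doxycycline. Corrected green/red luminescence ratio normalized to 10 uM MG-132 and basal cell wells; curves fitted.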

[9] = measured here: cell count channel max response
[10] = measured here: lipid channel max response
[11] = measured here: red reporter channel AC50, EF-alpha promoter control reporter in MSC80 mouse Schwann cells
[12] = measured here: green reporter channel AC50, mouse Pmp22 promoter in mouse Schwann cells
Tags give direction and shape of the fitted curve.

Q: Which max response [1, 9] does the source give for `NC(=O)c1ccccc1` here?
A: 45.5%

Q: And the max response [1, 10]?
A: 40.8%

Q: What about the AC50 [2, 11] of the same compound?
A: 95.3 µM [falling, single point]

Q: And the viability change [3]?
A: 6.6%

Q: Which results are given for `CC(C)(C)[C@]1(O)CCN2CC3c4ccccc4CCc4cccc(c43)[C@@H]2C1` (stereo partly drawn)?
A: max response [1, 9]: 60.2% and 61.8%; max response [1, 10]: 61.9% and 60.3%; AC50 [2, 12]: 42.6 µM [falling, partial curve] and 53.6 µM [falling, partial curve]; AC50 [2, 11]: 42.6 µM [falling, full curve] and 47.8 µM [falling, partial curve]; AC50 [4]: 14.1 µM [falling, single point]

Q: What does the source list for `O=C(O)CCCCC1CCSS1` (stereo not drawn)?
A: max response [1, 9]: 58.8%; max response [1, 10]: 61.7%; max response [5]: 91.5%; max response [6]: 29% and 13.2%; max response [7]: 12.9%

Q: With `Cn1c(=O)c2[nH]c(-c3ccc(S(=O)(=O)O)cc3)nc2n(C)c1=O` as the compound, how does the max response [1, 9] read?
A: 74.8%

Q: And the max response [1, 10]?
A: 74.2%

Q: What about the AC50 [8] of the same compound?
A: 4.11 µM [falling, full curve]

Q: With `Brc1c(Br)c(Br)c2n[nH]nc2c1Br` as the compound, how does the max response [1, 9] read?
A: 56.5%

Q: And the max response [1, 10]?
A: 57.5%

Q: And the AC50 [8]?
A: 6.51 µM [falling, partial curve]

Q: Which results are given for `CCn1c(=O)c2[nH]c(-c3ccccc3)nc2n(CC)c1=O`?
A: max response [1, 9]: 75.7%; max response [1, 10]: 79.8%; AC50 [2, 12]: 67.5 µM [falling, partial curve]; AC50 [2, 11]: 37.9 µM [falling, partial curve]

Q: With `COc1cccc(OC)c1OCCNCC1CSc2ccccc2O1` (stereo not drawn) as the compound, how does the max response [1, 9] read?
A: 70.7%

Q: And the max response [1, 10]?
A: 75.2%

Q: What about the AC50 [2, 12] of the same compound?
A: 67.5 µM [falling, partial curve]

Q: What about the AC50 [2, 11] of the same compound?
A: 60.1 µM [falling, partial curve]

Q: What about the AC50 [8] of the same compound?
A: 32.6 µM [rising, single point]

Q: Which max response [1, 9] does the source give for `CC(C)C[C@H](NC(=O)C1OC1C(=O)O)C(=O)NCCCCN=C(N)N` (stereo partly drawn) here?
A: 35.7%

Q: What about the max response [1, 10] of the same compound?
A: 34.7%

Q: And the AC50 [3]?
A: 14.6 µM [falling, partial curve]

Q: And the viability change [3]?
A: -49.3%
